We go through three molecules from patent US20220002699A1 (PLANET BIOTECHNOLOGY, published 2022).

Assay [1] has as its target His-tagged SARS-CoV-2 RBD (SARS-CoV-2).
Assay [2] addresses SARS-CoV-2 spike (S) glycoprotein on live SARS-CoV-2 virus (SARS-CoV-2). In words: cell-based or functional assay.

For orientation: Kd means the concentration at which binding is half-saturated. Read a low Kd as higher affinity.

B1: huACE2-Fc fusion construct S2583 (ACE2-hFc1) (Fc fusion)
chain: not shown
Molecule B1 came in with a Kd in assay [1] of 3.2 nM. The “in vitro virus neutralization EC50” value in assay [2] came out at 0.9 µg/mL.

B2: huACE2-Fc fusion construct S2589 (ACE2-GS2-hFc3) (Fc fusion)
chain: not shown
The molecule B2 registered a Kd in assay [1] of 0.7 nM.

B3: huACE2-Fc fusion construct S2585 (ACE2-GS2-hFc1) (Fc fusion)
chain: not shown
Molecule B3 yielded an equilibrium dissociation constant (Kd) in assay [1] of 0.8 nM. In addition, the “in vitro virus neutralization EC50” value in assay [2] was 0.6 µg/mL.
